# Data from the supplement of paper PMC9446081.
# Out of some 39,000 compounds screened, about 220 (0.56%) showed activity. Some of the results follow.
# Test system: Escherichia coli K-12 BW25113
# Assay: relative growth (OD600 normalised to plate interquartile mean) (fraction); higher = less growth inhibition, active = 0.2 or less
# Settings: 50 µM; LB; incubation time: overnight (16-24 h)
# 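Note: static incubation at 37 °C against the wild-type strain, values averaged over two biological replicates.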
row,Compound,relative growth
1,C[C@@H]1CN([C@H](C)CO)C(=O)c2cc(NC(=O)CCC(F)(F)F)ccc2O[C@H]1CN(C)C(=O)Nc1ccc(C(F)(F)F)cc1,inactive: 0.917
2,CC1CCC2(C(=O)O)CCC3(C)C(=CCC4C5(C)CC(O)C(O)C(C)(CO)C5C(O)CC43C)C2C1C (stereo not given),inactive: 1.11
3,C[C@H]1[C@H]([Si](C)(C)F)[C@@H](CCO)O[C@]12C(=O)N(Cc1cccc(N3C(=O)COc4ccccc43)c1)c1ccccc12,inactive: 1.01
4,C[C@H]1CN([C@@H](C)CO)C(=O)Cc2cc(NC(=O)c3ccncc3)ccc2O[C@@H]1CN(C)Cc1ccc(Oc2ccccc2)cc1,inactive: 0.988
5,Cc1cc(C(=O)Nc2cccc3c2O[C@H](CN(C)S(=O)(=O)c2cn(C)cn2)[C@@H](C)CN([C@H](C)CO)C3=O)n(C)n1,inactive: 0.903
6,CC(C)NC(=O)Nc1ccc2c(c1)CC(=O)N([C@@H](C)CO)C[C@H](C)[C@@H](CN(C)Cc1ccc(-c3ccccc3)cc1)O2,inactive: 0.98
7,CC1OC(OC2C(Oc3cc(O)c4c(c3)OC(c3ccc(O)cc3)CC4=O)OC(CO)C(O)C2O)C(O)C(O)C1O (stereo not given),inactive: 1.01
8,O=C(COc1ccc(Cl)cc1Cl)NCCn1ncc2c(=O)n(Cc3cccc([N+](=O)[O-])c3)cnc21,inactive: 1.06
9,CCc1ccc(NC(=N)N=C(N)N)cc1,inactive: 0.969
10,COc1ccc(OCC(=O)NCC(=O)O)cc1,inactive: 0.974
11,Cc1ccc(S(=O)(=O)Nc2ccc3c(c2)C(=O)N([C@H](C)CO)C[C@@H](C)[C@@H](CN(C)Cc2ccc4c(c2)OCO4)OCCCC[C@H](C)O3)cc1,inactive: 1
12,C[C@@H]1CN([C@H](C)CO)C(=O)c2cc(NS(=O)(=O)c3ccccc3)ccc2O[C@@H](C)CCCCO[C@H]1CN(C)C(=O)C1CCCCC1,inactive: 1
13,CNC(=O)c1ccc(CN)cc1,inactive: 1.01
14,COCC#Cc1cnc2c(c1)C(=O)N([C@H](C)CO)C[C@H](C)[C@H](CN(C)C(=O)CN1CCOCC1)O2,inactive: 0.97
15,C[C@H]1CN([C@@H](C)CO)C(=O)c2cc(NC(=O)Cn3cnnn3)ccc2O[C@@H]1CN(C)S(=O)(=O)c1ccc(F)cc1,inactive: 0.987
16,COc1cccc(S(=O)(=O)N(C)C[C@H]2OCc3cn(nn3)CCCC(=O)N([C@H](C)CO)C[C@@H]2C)c1,inactive: 1.04
17,C[C@@H]1CN([C@H](C)CO)C(=O)c2cc(NC(=O)c3ccccc3)ccc2O[C@@H](C)CCCCO[C@@H]1CN(C)C(=O)c1ccccc1,inactive: 0.886
18,COc1ccc(S(=O)(=O)N(C)C[C@@H]2Oc3ccc(NS(=O)(=O)c4c(C)noc4C)cc3C(=O)N([C@@H](C)CO)C[C@H]2C)cc1,inactive: 0.979
19,Cc1ccc(S(=O)(=O)Nc2ccc3c(c2)C(=O)N([C@H](C)CO)C[C@@H](C)[C@@H](CN(C)S(=O)(=O)c2ccc(Cl)cc2)OCCCC[C@@H](C)O3)cc1,inactive: 1.04
20,C[C@@H]1CN([C@H](C)CO)C(=O)c2c(c3ccccc3n2C)-c2ccccc2CO[C@H]1CN(C)C(=O)NC1CCCCC1,inactive: 1.02

row,Compound,relative growth
1,COc1ccc(S(=O)(=O)N(C)C[C@@H]2Oc3ccc(NS(C)(=O)=O)cc3CC(=O)N([C@@H](C)CO)C[C@@H]2C)cc1,inactive: 1.02
2,C[C@H]1CN([C@@H](C)CO)C(=O)c2cc(NC(=O)Nc3ccccc3)ccc2O[C@@H]1CN(C)Cc1ccc(Cl)c(Cl)c1,inactive: 1.06
3,COc1ccc(CN(C)C[C@H]2OCCCC[C@H](C)Oc3ccc(NC(=O)Cc4ccccc4)cc3C(=O)N([C@@H](C)CO)C[C@@H]2C)cc1,inactive: 0.997
4,CN(C)CC(=O)N[C@@H]1CC[C@H](CCNC(=O)C2CCC2)O[C@H]1CO,inactive: 1.01
5,C[C@H]1NC(=O)[C@H](Cc2ccccc2)NC(=O)[C@@]23C(=O)N[C@@H](Cc4ccccc4)[C@@H]2[C@H](C)[C@@]2(C)O[C@H]2[C@H]3/C=C/C/C=C\CNC1=O,inactive: 1.01
6,Cc1noc(C)c1S(=O)(=O)Nc1ccc2c(c1)C(=O)N([C@@H](C)CO)C[C@@H](C)[C@@H](CN(C)C(=O)Nc1cccc3ccccc13)OCCCC[C@@H](C)O2,inactive: 1.04
7,C[C@@H]1CN([C@@H](C)CO)C(=O)Cc2cc(NC(=O)Cc3ccccc3)ccc2O[C@H]1CN(C)Cc1ccc(C(F)(F)F)cc1,inactive: 1
8,CC[C@H](C)[C@@H]([C@@H](CC(=O)N1CCC[C@H]1[C@H](OC)[C@@H](C)C(=O)N[C@@H](Cc1ccccc1)c1nccs1)OC)N(C)C(=O)[C@@H](NC(=O)[C@H](C(C)C)N(C)C)C(C)C,inactive: 1.06
9,COCCNC(=O)C[C@@H]1CC[C@@H]2[C@H](COC[C@H](O)CN2C(=O)Nc2ccc3c(c2)OCO3)O1,inactive: 0.977
10,Nc1nc2nc[nH]c2c(=O)[nH]1,inactive: 0.961
11,O=C(C[C@@H]1CC[C@@H]2[C@H](COC[C@H](O)CN2C(=O)Nc2ccc(Cl)cc2)O1)NC1Cc2ccccc2C1,inactive: 0.968
12,CC(C)C[C@H](NC(=O)[C@H]1O[C@@H]1C(=O)O)C(=O)NCCCCNC(=N)N,inactive: 1.01
13,C[C@H]1CCCCO[C@@H](CN(C)C(=O)c2ccccc2)[C@@H](C)CN([C@@H](C)CO)C(=O)c2cc(NS(=O)(=O)c3cccs3)ccc2O1,inactive: 0.98
14,CCOc1ccc(Nc2c3ccccc3nc3ccccc23)cc1,inactive: 0.671
15,C[C@@H]1CN([C@@H](C)CO)C(=O)c2cc(NC(=O)Nc3ccccc3)ccc2O[C@@H](C)CCCCO[C@@H]1CN(C)Cc1ccc(C(F)(F)F)cc1,inactive: 1.06
16,C[C@H](CO)N1C[C@H](C)[C@@H](CN(C)S(=O)(=O)c2cccs2)Oc2c(NC(=O)Cn3cnnn3)cccc2C1=O,inactive: 0.999
17,COc1ccc(NC(=O)N(C)C[C@@H]2Oc3ccc(NC(=O)Nc4cccc5ccccc45)cc3CC(=O)N([C@@H](C)CO)C[C@@H]2C)cc1,inactive: 0.993
18,CCc1cc(C(N)=S)ccn1,inactive: 0.98
19,C[C@H]1CN([C@@H](C)CO)C(=O)c2cc(-c3cccnc3)cnc2O[C@H]1CN(C)Cc1ccc(-c2ccccc2)cc1,inactive: 1.02
20,CN(C)CCN1C(=O)CO[C@H]2CN(C(=O)NCc3cccnc3)C[C@@H]21,inactive: 0.957

row,Compound,relative growth
1,C[C@H]1CN([C@@H](C)CO)C(=O)Cc2cc(NC(=O)Cc3cn(C)c4ccccc34)ccc2O[C@@H]1CN(C)Cc1ccc(C(=O)Nc2ccccc2N)cc1,inactive: 1.02
2,CNC(=O)CN1CCOC[C@@]2(C1)CN(C(=O)c1ccn[nH]1)CCO2,inactive: 0.952
3,CC(=O)Nc1c(I)c(NC(C)=O)c(I)c(C(=O)O)c1I,inactive: 1.08
4,C[C@H]1CCCCO[C@@H](CN(C)C(=O)NC2CCCCC2)[C@@H](C)CN([C@@H](C)CO)C(=O)c2cc(NC(=O)Nc3ccccc3)ccc2O1,inactive: 0.857
5,Nc1nncn1C(=O)c1ccccc1F,inactive: 0.975
6,CN1C(=O)c2cc(NC(=O)c3cscn3)ccc2OC[C@@H]2O[C@H](CC(=O)N3CCOCC3)CC[C@@H]21,inactive: 0.959
7,O=C(OC1Cc2c(O)cc(O)cc2OC1c1cc(O)c(=O)c2c(O)c(O)cc(C3Oc4cc(O)cc(O)c4CC3O)c2c1)c1cc(O)c(O)c(O)c1 (stereo not given),inactive: 0.936
8,C[C@@H]1CCCCO[C@H](CN(C)Cc2ccc(C(F)(F)F)cc2)[C@@H](C)CN([C@H](C)CO)C(=O)c2cc(NS(C)(=O)=O)ccc2O1,inactive: 1.02
9,C[C@H](CO)N1C[C@H](C)[C@H](CN(C)Cc2ccc(C(=O)O)cc2)OCc2ccccc2-c2c(n(C)c3ccccc23)C1=O,inactive: 0.959
10,C[C@@H]1CCCCO[C@H](CN(C)C(=O)Nc2ccc3c(c2)OCO3)[C@@H](C)CN([C@H](C)CO)C(=O)c2cc(NC(=O)Cc3ccccc3)ccc2O1,inactive: 1.02
11,Cc1noc(C)c1S(=O)(=O)Nc1ccc2c(c1)CC(=O)N([C@H](C)CO)C[C@@H](C)[C@H](CN(C)S(=O)(=O)c1ccc(F)cc1)O2,inactive: 0.989
12,C[C@@H]1CCCCO[C@@H](CN(C)C(=O)C2CCCCC2)[C@@H](C)CN([C@@H](C)CO)C(=O)c2cc(NC(=O)Nc3ccc(F)cc3)ccc2O1,inactive: 0.997
13,C[C@H]1CN([C@@H](C)CO)C(=O)c2cc(C#CCc3ccccc3)cnc2O[C@@H]1CN(C)CC1CCOCC1,inactive: 1.02
14,CNC[C@H]1OCCCC[C@H](C)Oc2ccc(NC(=O)c3ccncc3)cc2C(=O)N([C@H](C)CO)C[C@@H]1C,inactive: 0.999
15,COc1ccc(S(=O)(=O)Nc2ccc3c(c2)C(=O)N([C@@H](C)CO)C[C@@H](C)[C@H](CN(C)C(=O)Nc2ccc(F)cc2)OCCCC[C@@H](C)O3)cc1,inactive: 1.03
16,C[C@@H]1CCCCO[C@H](CN(C)C(=O)Nc2ccc3c(c2)OCO3)[C@@H](C)CN([C@@H](C)CO)C(=O)c2cc(NC(=O)c3ccncc3)ccc2O1,inactive: 0.997
17,Cc1noc(C)c1NC(=O)Nc1ccc2c(c1)CC(=O)N([C@H](C)CO)C[C@H](C)[C@H](CN(C)Cc1ccc(Oc3ccccc3)cc1)O2,inactive: 0.987
18,C[C@@H]1CCCCO[C@@H](CN(C)Cc2ccc(C(F)(F)F)cc2)[C@@H](C)CN([C@@H](C)CO)C(=O)c2cc(NS(=O)(=O)c3cn(C)cn3)ccc2O1,inactive: 0.97
19,C[C@H](NC(=O)N(C)C[C@H]1OCc2ccccc2-c2ccccc2C(=O)N([C@@H](C)CO)C[C@@H]1C)c1ccccc1,inactive: 1.02
20,O=C(Cc1ccccn1)NCC[C@H]1CC[C@H](NC(=O)CN2CCOCC2)[C@H](CO)O1,inactive: 1.01
